Source: the supplement of paper PMC12217912
The other results are listed elsewhere or left out. Sequences were assembled here from the parent chain. Values near 0.05 are background.

B1: TEV protease; numbered along this chain (parent)
chain: MGESLFKGPRDYNPISSSICHLTNESDGHTTSLYGIGFGPFIITNKHLFRRNNGTLVVQSLHGVFKVKDTTTLQQHLVDGRDMIIIRMPKDFPPFPQKLKFREPQREERICLVTTNFQTKSMSSMVSDTSCTFPSGDGIFWKHWIQTKDGQCGSPLVSTRDGFIVGIHSASNFTNTNNYFTSVPKNFMELLTNQEAQQWVSGWRLNADSVLWGGHKVFMVKPEEPFQPVKEATQL

Variants of: B1
Assay: raw area under fraction-flipped curve 0-4 h after induction (AUC4h, not background-subtracted), DNA-recorder readout of cleavage of the substrate (dimensionless); higher = more cleavage of the substrate by the protease variant
Conditions: temperature: 34 °C; time window: 0-4 h after rhamnose induction
Experimental: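 In vivo DNA recorder in E. coli TOP10(DE3) ΔrhaA at 34 °C. Each TEVp single-site mutant (parent TEVp 0) is paired with a single-site variant of the 7-mer TEVs (canonical ENLYFQ|S). The substrate sits between flexible linkers in a Bxb1-sfGFP-TEVs-SsrA fusion, so cleavage stabilises Bxb1 and speeds flipping of a recombination array, read by NGS. The value is the raw area under the fraction-flipped curve over 0-4 h after rhamnose induction (AUC4h), with ≥20 reads per time point. It is not background-subtracted; inactive controls average about 0.047.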
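Further: Bxb1 expression induced with 0.2% (w/v) L-rhamnose at OD600 near 0.5, cultures sampled hourly, flipped fraction per protease–substrate barcode pair counted by paired-end Illumina sequencing.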

Variant	area with substrate ENAYFQS	area with substrate ENCYFQS	area with substrate ENDYFQS	area with substrate ENEYFQS	area with substrate ENFYFQS	area with substrate ENGYFQS	area with substrate ENHYFQS	area with substrate ENKYFQS	area with substrate ENMYFQS	area with substrate ENNYFQS	area with substrate ENPYFQS	area with substrate ENQYFQS	area with substrate ENRYFQS	area with substrate ENTYFQS	area with substrate ENVYFQS	area with substrate ENWYFQS	area with substrate ENYYFQS	area with substrate ENIYFQS	area with substrate ENSYFQS
L56R	0.0595	0.0366	0.0579	0.0615	0.042	0.0389	0.0384	0.0476	0.0377	0.051	0.0369	0.0249	0.047	0.0381	0.0355	0.0359	0.0549	–	–
L61C	0.0551	0.0721	0.0618	0.0632	0.0549	0.0625	0.0642	0.0515	0.0849	0.0834	0.0597	0.0593	0.0562	0.0818	0.094	0.0066	0.0517	0.114	0.0677
H62K	0.0966	0.0634	–	0.0691	–	–	–	–	–	–	–	0.0625	0.0585	0.0645	0.0757	0.0612	–	0.0926	0.0595
G63W	0.0565	0.0608	0.0788	0.0552	0.0585	0.0567	0.0685	0.0592	–	–	–	0.0545	0.0582	0.0593	0.0739	–	–	0.108	0.0553
V64A	0.0613	0.0643	0.0607	0.0573	–	–	–	0.0598	–	–	0.0581	–	0.056	0.066	–	–	0.053	–	0.0581
V64D	0.0687	0.074	–	–	0.0452	–	–	0.0547	–	–	–	–	0.061	–	0.0595	0.0362	–	0.125	–
V64E	0.0732	–	0.0695	0.0603	0.0639	0.0689	0.0557	–	–	–	0.0559	0.0603	–	–	–	0.0454	–	0.127	0.0626
V64G	0.0516	0.0566	0.0473	0.0627	0.064	0.06	–	–	–	0.067	0.0555	0.0158	0.0696	–	0.0668	–	0.0472	0.0904	0.0587
V64H	0.0636	0.0753	–	0.0545	–	–	–	–	–	–	–	0.0613	–	–	0.0732	–	–	–	–
V64I	0.0548	0.0618	0.0683	0.0688	0.0709	0.052	–	–	0.0544	0.0648	0.059	0.0674	–	0.0764	0.08	–	0.0544	–	0.0652
V64M	0.0685	0.0643	0.0606	–	–	0.0657	–	–	0.0789	–	0.0648	0.055	0.0499	0.0525	0.0919	–	–	0.0898	0.0639
F65A	0.0579	0.0781	–	0.0607	–	0.0531	0.0771	0.0596	–	0.0385	–	0.0549	0.046	0.0672	0.0701	0.0386	0.0567	0.0931	0.0621
K68R	0.0599	0.0646	0.0551	0.0553	0.0756	0.0632	0.0759	–	0.0777	0.061	0.0611	0.0577	0.0625	0.0654	0.0768	0.0401	0.066	0.083	–
D69G	0.0595	–	0.053	0.0535	0.0682	–	0.0536	–	0.0699	0.0601	–	0.0548	0.0444	–	–	0	–	–	0.0889
D69P	0.0615	0.0612	0.0549	0.064	0.0586	0.0646	0.0513	0.0522	0.0687	0.0575	0.0684	0.0583	–	0.0456	0.067	0.0092	0.0426	0.0979	0.0556
T72F	0.0752	0.0649	0.0651	0.0564	0.0534	0.0553	0.0571	0.0609	–	–	–	0.0598	0.0588	0.0537	0.058	0.0422	–	0.112	0.0459
T72K	0.0534	0.0626	0.0623	0.0774	0.0865	0.0564	0.037	0.0559	0.0796	0.0557	0.0197	0.0579	0.043	–	0.0839	0.0633	0.0616	0.116	0.0661
T72Q	0.0605	0.0689	0.0542	–	–	0.066	0.0537	–	–	0.0654	–	0.0756	0.0532	–	0.0883	–	–	–	–
L73V	0.0618	–	0.0681	0.0643	0.0683	0.058	–	0.0598	0.0804	0.0778	–	0.0413	0.0633	–	0.0688	–	–	0.0948	0.0628
Q74S	0.0691	0.0768	0.0688	0.0632	0.0444	0.0392	0.045	0.0573	–	0.0409	0.0637	0.0549	–	0.0658	0.0711	–	–	0.0924	–
Q75N	0.0759	0.0599	0.0421	0.0623	0.038	0.0576	0.065	0.088	–	0.0485	0.0576	0.0643	0.0817	–	0.042	–	–	0.0517	0.0645
H76C	0.0579	0.0665	0.0418	0.0529	0.0686	–	0.0583	0.0675	–	0.0659	0.0579	0.0679	0.0644	0.059	0.0689	0.047	–	0.13	0.0413
L77F	0.0579	0.0567	0.0657	0.0563	0.0619	0.0576	0.0628	–	0.0451	0.0659	0.0688	0.0556	0.0594	0.0682	0.0594	0.0703	0.0566	0.0606	0.0579
G80A	0.0354	0.0782	0.0408	–	0.0743	0.0611	–	–	0.0781	–	0.0718	0.0573	0.0646	0.0578	–	–	0.064	–	0.0653
G80D	0.0708	–	–	–	0.0678	–	0.0538	0.0617	0.0895	–	0.0725	–	0.057	0.0647	–	–	0.0718	0.156	–
G80E	0.059	0.0725	0.0567	0.0571	–	0.0537	0.0437	–	–	–	0.0561	0.0647	0.0487	0.0503	0.0785	–	0.0672	0.134	0.0968
